PubChem BioAssay (Tox21)
Where “and” joins values, the source holds several entries; their conditions need not be identical. Equal entries are not always repeated. Inconclusive means that the source gave no clear call. Such entries were picked first, then a sample of the others. For some assays here: A potency beside an inconclusive call is a rough fit, not a confirmed value. Calls of active or inactive are those of the source. Calls come from the whole dose curve; as a rule, active = well fitted curve in the direction sought with a large enough effect in the repeat runs; inconclusive = weak or mixed curves; inactive = no such curve, though single readings can be large; an effect the other way counts as inactive or inconclusive.

Legend:
[1] = A CellTox Green Cytotoxicity Assay to monitor cytotoxicity in HepG2 cells - 40 hour (AID 1224879); note: nearly all actives have a fitted effect of over 40% in size; note: potency is the fitted concentration of half-maximal effect
Procedure, shortened: (§1)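 First, HepG2 cells (600/well) mixed with reagent were plated; second, after 5 h at 37 C they received compounds via pintool; third, fluorescence was measured at 0 h through 40 h at 8 h intervals.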

[2] = A CellTox Green Cytotoxicity Assay to monitor cytotoxicity in HEK293 cells - 32 hour (AID 1224881); note: potency is the fitted concentration of half-maximal effect; nearly all actives have a fitted effect of over 40% in size
Procedure, shortened: (§2)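 Dead-cell fluorescence measured kinetically: asymmetric cyanine dye, HEK293, 600 cells/well, 5 h settle, 23 nL cpd/DMSO, 37 C, reads 0–40 h every 8 h.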

[3] = qHTS RealTime-Glo MT Cell Viability Assay in HEK293 cells - 24 hour (AID 1224886); note: potency is the fitted concentration of half-maximal effect; nearly all actives have a fitted effect of over 50% in size
Procedure, shortened: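 Cells + reagent dispensed (600 cells/well, HEK293) → 5 h at 37 C/5% CO2 → 23 nL compound in DMSO pinned → 40 h at 37 C → luminescence read at 0, 8, 16, 24, 32, 40 h.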

[4] = qHTS RealTime-Glo MT Cell Viability Assay in HEK293 cells - 8 hour (AID 1224887); note: potency is the fitted concentration of half-maximal effect; nearly all actives have a fitted effect of over 50% in size
Procedure, shortened: (§3)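 600 HEK293 cells per well, dispensed already mixed with RealTime-Glo MT reagents. Compound dosing came 5 h later. The same wells were read for luminescence at 0, 8, 16, 24, 32 and 40 h of exposure at 37 C.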

[5] = A CellTox Green Cytotoxicity Assay to monitor cytotoxicity in HEK293 cells - 16 hour (AID 1224888); note: potency is the fitted concentration of half-maximal effect; nearly all actives have a fitted effect of over 35% in size
Procedure, shortened: as §2

[6] = qHTS RealTime-Glo MT Cell Viability Assay in HEK293 cells - 0 hour (AID 1224880); note: top concentration of the series differs between compounds; nearly all actives have a fitted effect of over 45% in size
Procedure, shortened: as §3

[7] = A CellTox Green Cytotoxicity Assay to monitor cytotoxicity in HepG2 cells - 24 hour (AID 1224878); note: nearly all actives have a fitted effect of over 45% in size
Procedure, shortened: as §1

[8] = qHTS assay to identify small molecule antagonists of the androgen receptor (AR) signaling pathway using the MDA cell line in the presence of 0.5 nM R1881 - cell viability counter screen (AID 1259242); note: nearly all actives have a fitted effect of over 45% in size; note: potency is the fitted concentration of half-maximal effect
Procedure, shortened: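 qHTS format. MDA-kb2 (MMTV-luc, AR/GR responsive) + cpd + 0.5 nM R1881 final, 16 hr 37C/0% CO2 → CellTiter-Fluor 30 min → fluorescence intensity.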

[9] = molecular target: Estrogen receptor (Homo sapiens) (UniProt P03372); assay: qHTS assay to identify small molecule antagonists of the estrogen receptor alpha (ER-alpha) signaling pathway using the BG1 cell line in the presence of 0.1 nM 17-beta-estradiol (AID 1259244); note: nearly all actives have a fitted effect of over 50% in size; note: potency is the fitted concentration of half-maximal effect
Chain of UniProt P03372 (P03372 whole entry, looked up): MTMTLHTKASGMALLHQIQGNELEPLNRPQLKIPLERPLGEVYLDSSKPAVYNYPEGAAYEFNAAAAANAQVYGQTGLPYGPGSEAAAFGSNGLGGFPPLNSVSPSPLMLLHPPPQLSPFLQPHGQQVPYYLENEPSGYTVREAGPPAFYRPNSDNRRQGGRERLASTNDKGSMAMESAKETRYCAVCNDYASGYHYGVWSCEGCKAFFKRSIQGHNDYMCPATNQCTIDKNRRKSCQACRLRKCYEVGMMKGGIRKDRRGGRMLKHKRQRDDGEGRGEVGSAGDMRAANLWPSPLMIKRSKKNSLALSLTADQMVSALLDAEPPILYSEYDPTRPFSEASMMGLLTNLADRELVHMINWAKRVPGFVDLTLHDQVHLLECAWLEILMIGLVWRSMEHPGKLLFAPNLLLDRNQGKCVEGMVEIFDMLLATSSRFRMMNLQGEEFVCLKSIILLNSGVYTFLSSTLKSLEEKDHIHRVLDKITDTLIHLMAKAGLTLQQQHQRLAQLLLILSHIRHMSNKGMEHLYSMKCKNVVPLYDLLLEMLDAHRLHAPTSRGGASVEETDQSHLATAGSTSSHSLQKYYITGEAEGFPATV
Procedure, shortened: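 Reporter is a stably transfected luciferase under four estrogen responsive elements in VM7Luc4E2 cells expressing native full-length ER-alpha; inhibition of 0.1 nM (final) 17beta-estradiol-driven signal over 22 h is read by luminescence.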

[10] = A CellTox Green Cytotoxicity Assay to monitor cytotoxicity in HepG2 cells - 32 hour (AID 1224883); note: potency is the fitted concentration of half-maximal effect; nearly all actives have a fitted effect of over 50% in size
Procedure, shortened: as §1

[11] = qHTS RealTime-Glo MT Cell Viability Assay in HepG2 cells - 16 hour (AID 1224885); note: nearly all actives have a fitted effect of over 50% in size
Procedure, shortened: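 Real-time, nonlytic viability: 600 HepG2 cells/well mixed with NanoLuc enzyme plus prosubstrate; 5 h settle, compound (DMSO) added by pintool; luminescence monitored over 40 h at 37 C.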

[12] = qHTS assay to identify small molecule antagonists of the estrogen receptor alpha (ER-alpha) signaling pathway using the BG1 cell line in the presence of 0.1 nM 17-beta-estradiol - cell viability counter screen (AID 1259241); note: nearly all actives have a fitted effect of over 40% in size; note: potency is the fitted concentration of half-maximal effect
Procedure, shortened: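 Cytotoxicity counter-screen: live-cell protease activity measured by fluorescence (30 min reagent step) in the same wells. Cells were VM7Luc4E2 with endogenous ER-alpha and ERE-driven luciferase, treated 22 hr at 37C alongside 0.1 nM 17beta-estradiol final.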

[13] = molecular target: Androgen receptor (Homo sapiens) (UniProt P10275); assay: qHTS assay to identify small molecule antagonists of the androgen receptor (AR) signaling pathway using the MDA cell line in the presence of 0.5 nM R1881 (AID 1259243)
Chain of UniProt P10275 (P10275 whole entry, looked up): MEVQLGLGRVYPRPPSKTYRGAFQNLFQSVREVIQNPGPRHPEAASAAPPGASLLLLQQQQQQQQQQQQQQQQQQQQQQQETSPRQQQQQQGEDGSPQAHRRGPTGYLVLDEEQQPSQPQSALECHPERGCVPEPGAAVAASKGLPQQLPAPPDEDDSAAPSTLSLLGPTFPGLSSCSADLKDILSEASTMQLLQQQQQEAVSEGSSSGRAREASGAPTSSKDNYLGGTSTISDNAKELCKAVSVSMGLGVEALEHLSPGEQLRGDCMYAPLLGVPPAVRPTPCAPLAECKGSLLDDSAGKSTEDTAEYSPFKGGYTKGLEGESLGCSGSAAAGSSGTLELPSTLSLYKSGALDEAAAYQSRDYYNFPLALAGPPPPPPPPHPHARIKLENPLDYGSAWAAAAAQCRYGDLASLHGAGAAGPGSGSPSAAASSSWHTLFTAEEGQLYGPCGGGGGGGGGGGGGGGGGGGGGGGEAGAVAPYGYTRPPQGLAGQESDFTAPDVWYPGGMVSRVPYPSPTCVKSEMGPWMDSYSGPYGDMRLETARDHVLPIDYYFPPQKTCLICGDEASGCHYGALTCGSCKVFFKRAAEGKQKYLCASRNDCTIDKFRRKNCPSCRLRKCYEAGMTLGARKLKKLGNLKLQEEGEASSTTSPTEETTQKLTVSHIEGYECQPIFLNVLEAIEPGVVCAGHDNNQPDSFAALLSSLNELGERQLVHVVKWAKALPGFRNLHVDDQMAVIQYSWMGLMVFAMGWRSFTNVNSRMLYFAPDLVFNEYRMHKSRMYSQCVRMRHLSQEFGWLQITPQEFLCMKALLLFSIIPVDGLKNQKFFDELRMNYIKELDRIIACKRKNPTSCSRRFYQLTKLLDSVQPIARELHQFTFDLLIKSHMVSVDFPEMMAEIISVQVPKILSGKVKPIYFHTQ
Procedure, shortened: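 Antagonist mode quantitative HTS in MDA-kb2 MMTV-luciferase cells, agonist R1881 at 0.5 nM final, 16 hr exposure at 37C and 0% CO2, luminescent detection.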
Tags give direction and shape of the fitted curve.

CCNc1nc(NC(C)(C)C)nc(SC)n1
Potency [1]: inconclusive: 49 µM [activator, single point] | Potency [2]: inconclusive: 3.05 µM [activator, full curve, poor fit] | Potency [3]: active: 43.1 µM and inconclusive: 38.9 µM [cytotoxic, partial curve, poor fit] | Potency [4]: inconclusive: 43.1 µM [cytotoxic, partial curve] | Potency [5]: inconclusive: 3.84 µM [activator, partial curve]

C#C[C@]1(O)CC[C@H]2[C@@H]3CCC4=CC(=O)CC[C@]4(C)[C@H]3CC[C@@]21C
Potency [1]: inconclusive: 54.9 µM [activator, single point] and inconclusive: 26.8 µM [activator, single point] | Potency [6]: inactive | Potency [2]: active: 49 µM and inconclusive: 26.8 µM [activator, single point] | Potency [5]: inconclusive: 54.9 µM [activator, single point]

CN(C)CCc1c[nH]c2cccc(OP(=O)(O)O)c12
Potency [1]: inconclusive: 0.0121 µM [activator, full curve, poor fit]

CCOP(=O)(CN(CCO)CCO)OCC
Potency [7]: inactive | Potency [8]: inactive | Potency [9]: inactive

C=CC(C)(CCC=C(C)C)OC(=O)c1ccccc1N (configuration not stated)
Potency [1]: inactive

O=C(NC(=O)c1ccccc1Cl)Nc1ccc(OC(F)(F)F)cc1
Potency [1]: inactive | Potency [3]: inconclusive: 13.8 µM [cytotoxic, partial curve]

COc1ccc(O)c(C(C)(C)C)c1
Potency [1]: inconclusive: 55.1 µM [activator, single point] and inconclusive: 61.6 µM [activator, single point] | Potency [10]: inconclusive: 55.1 µM [activator, single point] and inconclusive: 61.6 µM [activator, single point]

CCCCCCCCCCCCCCCCCC(=O)O
Potency [1]: inconclusive: 55.8 µM [activator, single point] | Potency [11]: inactive

c1cc2ccc3cccc4ccc(c1)c2c34
Potency [1]: inconclusive: 64.6 µM [activator, single point] | Potency [10]: inconclusive: 57.6 µM [activator, single point] | Potency [12]: inconclusive: 28.6 µM [rising, single point]

Oc1c(Br)cc(Br)cc1Br
Potency [1]: inconclusive: 55.1 µM [activator, single point] | Potency [10]: inconclusive: 55.1 µM [activator, single point] | Potency [3]: inconclusive: 61.8 µM [cytotoxic, single point] and inconclusive: 61.6 µM [cytotoxic, partial curve, poor fit] | Potency [4]: inconclusive: 61.8 µM [cytotoxic, single point] | Potency [12]: inactive | Potency [9]: inconclusive: 61.3 µM [inhibitor, single point] and inactive

O=C(NC(=O)c1c(F)cccc1F)Nc1ccc(Cl)cc1
Potency [1]: inconclusive: 24.5 µM [activator, single point] | Potency [3]: inconclusive: 19.5 µM [cytotoxic, partial curve] and inconclusive: 17.4 µM [cytotoxic, full curve]

COP(=S)(OC)SCn1nnc2ccccc2c1=O
Potency [1]: inconclusive: 54.9 µM [activator, single point] | Potency [10]: inconclusive: 54.9 µM [activator, partial curve, poor fit] | Potency [3]: inconclusive: 53.9 µM [cytotoxic, single point] and inconclusive: 49 µM [cytotoxic, partial curve] | Potency [4]: inconclusive: 38.1 µM [cytotoxic, partial curve] and inconclusive: 49 µM [cytotoxic, partial curve] | Potency [12]: inconclusive: 68.6 µM [cytotoxic, partial curve, poor fit] | Potency [9]: inconclusive: 47.6 µM [inhibitor, partial curve] and inconclusive: 68.6 µM [inhibitor, single point]

CC(C)=CC1C(C(=O)OCN2C(=O)C3=C(CCCC3)C2=O)C1(C)C (configuration not stated)
Potency [1]: inactive and inconclusive: 601 nM [activator, partial curve, poor fit] | Potency [4]: inconclusive: 43.6 µM [cytotoxic, partial curve]

Fc1ccc(Oc2ccnc3cc(Cl)cc(Cl)c23)cc1
Potency [1]: inconclusive: 61.6 µM [activator, single point] | Potency [3]: active: 11 µM | Potency [4]: active: 7.76 µM

Oc1cc(Cl)c(Cl)c(Cl)c1Cl
Potency [1]: inconclusive: 60.2 µM [activator, single point] | Potency [3]: active: 47.8 µM | Potency [4]: inconclusive: 53.7 µM [cytotoxic, single point] | Potency [8]: inconclusive: 67 µM [cytotoxic, single point] | Potency [13]: inconclusive: 67 µM [inhibitor, single point]
